Laboratory results published in EPA's CvTdb concentration-time database.
The source gives many values for each of these; only a part stands here.

Key:
Assay in all cases: concentration in plasma after dosing
[1] = tested on: Rat; settings: 3360 h; dosed: Perfluorooctane Sulfonate; 20 mg/kg; oral; Male; Harlan Sprague Dawley
[2] = tested on: Rat; settings: 1848 h; dosed: Perfluorooctane Sulfonate; 20 mg/kg; oral; Male; Harlan Sprague Dawley
[3] = tested on: Rat; settings: dosed: Perfluorooctane Sulfonate, 20 mg/kg, oral, Female, F344
[4] = tested on: Rat; settings: 6 h; dosed: Perfluorooctane Sulfonate; 2 mg/kg; oral; Female; Harlan Sprague Dawley
[5] = tested on: Rat; settings: 1848 h; dosed: Perfluorooctane Sulfonate; 2 mg/kg; oral; Female; Harlan Sprague Dawley
[6] = tested on: Rat; settings: dosed: Perfluorooctane Sulfonate, 20 mg/kg, oral, Male, Harlan Sprague Dawley
[7] = tested on: Rat; settings: dosed: Perfluorooctane Sulfonate, 2 mg/kg, oral, Female, Harlan Sprague Dawley
[8] = tested on: Rat; settings: dosed: Perfluorodecanoic acid, 2 mg/kg, oral, Male, Harlan Sprague Dawley
[9] = tested on: Rat; settings: dosed: Perfluorodecanoic acid, 10 mg/kg, oral, Female, Harlan Sprague Dawley
[10] = tested on: Rat; settings: dosed: Perfluorodecanoic acid, 10 mg/kg, oral, Male, Harlan Sprague Dawley
[11] = tested on: Rat; settings: 1 h; dosed: Perfluorooctanoic acid; 40 mg/kg; iv; Male; F344
[12] = tested on: Rat; settings: 24 h; dosed: Perfluorooctanoic acid; 12 mg/kg; oral; Male; Harlan Sprague Dawley
[13] = tested on: Rat; settings: 9 h; dosed: Fluorotelomer alcohol 8+2; 160 mg/kg; oral; Female; Harlan Sprague Dawley
[14] = tested on: Rat; settings: dosed: Fluorotelomer alcohol 8+2, 80 mg/kg, oral, Female, Harlan Sprague Dawley
[15] = tested on: Rat; settings: 1200 h; dosed: Perfluorooctanoic acid; 12 mg/kg; oral; Male; Harlan Sprague Dawley
[16] = tested on: Rat; settings: 3 h; dosed: Fluorotelomer alcohol 8+2; 80 mg/kg; oral; Female; Harlan Sprague Dawley
[17] = tested on: Rat; settings: dosed: Perfluorooctanoic acid, 6 mg/kg, iv, Male, F344
[18] = tested on: Rat; settings: 3 h; dosed: Perfluorooctanoic acid; 12 mg/kg; oral; Male; Harlan Sprague Dawley
[19] = tested on: Rat; settings: 6 h; dosed: Perfluorooctanoic acid; 80 mg/kg; oral; Female; Harlan Sprague Dawley
[20] = tested on: Rat; settings: 1 h; dosed: Perfluorooctanoic acid; 80 mg/kg; oral; Female; Harlan Sprague Dawley
[21] = tested on: Rat; settings: dosed: Perfluorooctanoic acid, 48 mg/kg, oral, Male, Harlan Sprague Dawley
[22] = tested on: Rat; settings: 12 h; dosed: Fluorotelomer alcohol 8+2; 24 mg/kg; oral; Male; Harlan Sprague Dawley
[23] = tested on: Rat; settings: dosed: Perfluorooctanoic acid, 40 mg/kg, oral, Male, Harlan Sprague Dawley
[24] = tested on: Rat; settings: 3 h; dosed: Perfluorooctanoic acid; 12 mg/kg; oral; Male; Harlan Sprague Dawley; remark: listed apart in the source
[25] = tested on: Rat; settings: dosed: Perfluorooctanoic acid, 320 mg/kg, oral, Female, Harlan Sprague Dawley
[26] = tested on: Rat; settings: 9 h; dosed: Fluorotelomer alcohol 8+2; 80 mg/kg; oral; Female; Harlan Sprague Dawley
[27] = tested on: Rat; settings: 0.5 h; dosed: Fluorotelomer alcohol 8+2; 80 mg/kg; oral; Female; Harlan Sprague Dawley
[28] = tested on: Rat; settings: dosed: Fluorotelomer alcohol 8+2, 12 mg/kg, oral, Male, Harlan Sprague Dawley
[29] = tested on: Rat; settings: dosed: Perfluorooctanoic acid, 40 mg/kg, oral, Male, Harlan Sprague Dawley; remark: listed apart in the source
[30] = tested on: Rat; settings: dosed: Fluorotelomer alcohol 8+2, 48 mg/kg, oral, Male, Harlan Sprague Dawley
[31] = tested on: Rat; settings: dosed: Perfluorooctanoic acid, 320 mg/kg, oral, Female, Harlan Sprague Dawley; remark: listed apart in the source
[32] = tested on: Rat; settings: 528 h; dosed: Perfluorooctanoic acid; 12 mg/kg; oral; Male; Harlan Sprague Dawley
[33] = tested on: Rat; settings: 3 h; dosed: Fluorotelomer alcohol 8+2; 24 mg/kg; oral; Male; Harlan Sprague Dawley
[34] = tested on: Rat; settings: dosed: Perfluorooctanoic acid, 320 mg/kg, oral, Female, Harlan Sprague Dawley; remark: listed apart in the source

O=S(=O)([O-])C(F)(F)C(F)(F)C(F)(F)C(F)(F)C(F)(F)C(F)(F)C(F)(F)C(F)(F)F [Perfluorooctane Sulfonate]
Settings | concentration in plasma [ng/mL]
[1] | 4670
[2] | 18800
[4] | 5860
[5] | 1880

concentration in plasma [ng/mL]
Settings | 1 h | 5 min | 192 h | 528 h | 2520 h
[3] | – | 305 | 60200 | – | 7220
[6] | 30300 | – | – | 33900 | 7320
[7] | 3310 | – | – | 6380 | 1620

O=C(O)C(F)(F)C(F)(F)C(F)(F)C(F)(F)C(F)(F)C(F)(F)C(F)(F)C(F)(F)C(F)(F)F [Perfluorodecanoic acid]
Settings | concentration in plasma [ng/mL]
[8], 12 h | 9930
[8], 1200 h | 2790
[9], 6 h | 47300
[9], 1200 h | 12500
[9], 3360 h | 2940
[10], 2 h | 22400
[10], 528 h | 13500
[10], 2520 h | 3880

O=C(O)C(F)(F)C(F)(F)C(F)(F)C(F)(F)C(F)(F)C(F)(F)C(F)(F)F [Perfluorooctanoic acid]
Settings | concentration in plasma [ng/mL]
[11] | 204000
[12] | 77500
[13] | 4980
[15] | 1640
[16] | 3070
[18] | 76400
[19] | 159000
[20] | 247000
[22] | 658
[24] | 70200
[26] | 2990
[27] | 497
[32] | 17200
[33] | 827

Settings | concentration in plasma [ng/mL]
[14], 0.25 h | 106
[14], 24 h | 148
[17], 3 h | 41900
[17], 5 min | 57300
[17], 528 h | 5290
[21], 1 h | 98600
[21], 12 h | 257000
[21], 864 h | 9370
[23], 3 h | 125000
[23], 24 h | 2020
[25], 3 h | 451000
[25], 24 h | 434000
[28], 1 h | 375
[28], 24 h | 812
[29], 0.25 h | 66500
[29], 9 h | 60400
[29], 96 h | 45.4
[30], 0.5 h | 125
[30], 9 h | 1720
[31], 0.25 h | 91700
[31], 9 h | 358000
[31], 96 h | 4790
[34], 0.25 h | 336000
[34], 9 h | 581000
[34], 96 h | 6670
